# Screen size: about 48,000 compounds; about 1,200 (2.5%) were called active. Inconclusive results (about 2%) are left out.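 How the source made its calls: active means activation of at least 60% and not above a set upper limit (about 1 call in 100 departs from these limits); inconclusive means activation of 40% to 60%, or above that upper limit; inactive means activation under 40%.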 The list shows a part of the results.
# Biological target: Probable G-protein coupled receptor 32 (Homo sapiens) (UniProt O75388)
# UniProt O75388, sequence (O75388 whole entry, looked up): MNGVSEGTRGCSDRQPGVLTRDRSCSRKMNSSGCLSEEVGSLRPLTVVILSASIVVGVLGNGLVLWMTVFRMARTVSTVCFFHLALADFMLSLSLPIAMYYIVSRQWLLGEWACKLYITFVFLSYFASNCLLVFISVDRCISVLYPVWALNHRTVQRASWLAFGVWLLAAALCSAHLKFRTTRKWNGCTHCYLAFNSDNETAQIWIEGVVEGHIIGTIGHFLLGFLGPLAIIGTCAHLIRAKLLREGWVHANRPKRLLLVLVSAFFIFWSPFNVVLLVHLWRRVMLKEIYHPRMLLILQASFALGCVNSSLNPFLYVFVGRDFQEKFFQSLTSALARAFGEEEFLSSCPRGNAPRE
# Test: qHTS for Agonists of Human Resolvin D1 Receptor DRV1; further: 0% is about no effect
# Conditions: CHO-K1 GPR32 beta-arrestin PathHunter luminescence, 90 min; at 76.9 µM; active compounds read high; zero percent set by DMSO-only wells
# Summary of the method: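 Step 1: seed CHO-K1 GPR32 beta-arrestin cells, 2,500/well, overnight at 37 °C. Step 2: add compounds, 90 min at 37 °C. Step 3: detection reagent, 1 h ambient, then luminescence.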
row,SMILES,activation
1,COc1cccc(NC(=O)c2oc3ccccc3c2NC(=O)c2cc3ccccc3o2)c1,inactive: -1.69%
2,CCOC(=O)C1CCCN(c2ncnc3c2nnn3C)C1 (centres undefined),inactive: -7%
3,Cc1cccc(N2CCN(C(=O)C3CCN(c4ncnc5c4nc4n5CCCCC4)CC3)CC2)c1C,inactive: 5.75%
4,O=S(=O)(Nc1ccc(F)cc1F)c1ccc(-n2cccn2)cc1,active: 74.7%
5,Cc1nc2ccn(Cc3cccnc3)c(=O)c2cc1C(=O)Nc1ccc(F)cc1F,inactive: -7.11%
6,COCCCNC(=O)c1ccc(C)c(-n2c(C)nc3cccnc32)c1,inactive: -1.28%
7,COCCn1c(SCC(=O)c2c[nH]c3ccccc23)nc2cc(C(=O)NC(C)C)ccc2c1=O,inactive: -8.47%
8,O=C(CN1C(=O)CCc2cc(S(=O)(=O)N3CCOCC3)ccc21)NCc1ccc(Cl)cc1,inactive: 21.7%
9,CCOc1ccc(CCNC(=O)c2cc3c(s2)-c2c(C)cccc2OC3)cc1,inactive: -1.68%
10,CCOc1ccc(-c2nnc(SCC(=O)c3ccc(Br)cc3)n2-c2ccccc2)cc1,inactive: 8.04%
11,Cc1cccc(NC(=O)Cn2cc(C(=O)C3CCCCC3)c3ccccc32)c1,inactive: -7.64%
12,COC(=O)c1cc(Cl)ccc1OC,inactive: -10.4%
13,CSc1ccc(CCNC(=O)NCc2noc3ccccc23)cc1,inactive: -2.59%
14,CCOC(=O)CC(NC(=O)CCc1c(C)nc2c(-c3ccccc3)c(C)nn2c1C)c1ccc(OC(C)C)cc1 (centres undefined),inactive: 5.91%
15,COc1cc2c(-c3cccc(Cl)c3)nc3c(c(C)nn3-c3ccccc3)c2cc1OC,inactive: -2.29%
16,COc1ccc(Cn2c(CCC(=O)NCc3ccc(Cl)cc3)nc3cccnc32)cc1,inactive: -14%
17,COc1cccc(CNC(=O)c2cnc3sc(N4CCCC4)nn3c2=O)c1OC,inactive: -3.69%
18,CCOC(=O)COc1ccc(C2C(C(=O)OC)=C(C)NC3=C2C(=O)c2ccccc23)cc1Cl (centres undefined),inactive: -58.6%
19,O=C(CSc1cn(CC(=O)N2CCCC2)c2ccccc12)Nc1ccc(Cl)cc1,inactive: 15%
20,COc1ccc(Cl)cc1NC(=O)c1cc2c(=O)n3ccccc3nc2s1,inactive: -13.5%
21,COc1ccc(CNc2nc(-c3ccco3)nn2S(=O)(=O)c2ccc(Cl)cc2)cc1OC,inactive: -22.1%
22,Cc1ccc(C(=O)NCC(c2ccc3c(c2)OCO3)N2CCOCC2)cc1C (centres undefined),inactive: -8.55%
23,CCOC(=O)c1cc(S(=O)(=O)Nc2cc(OC)ccc2OC)[nH]n1,inactive: -0.852%
24,COC(=O)c1c(NC(=O)CCCOc2cccc(C)c2)sc2c1CCC2,inactive: -3.14%

# From PubChem BioAssay AID1346428 (National Center for Advancing Translational Sciences (NCATS), 2018)
